In all, about 150,000 compounds went through this assay and about 180 (0.12%) were called active. The shares of active, inactive and inconclusive entries below differ from those in the screen. Calls come from the whole dose curve; as a rule, active = well fitted cell-killing curve with a large enough effect; inconclusive = small, poorly fitted or top-dose-only effect, or effect the other way; inactive = flat fitted curve, though single readings scatter. Where the call is inconclusive, the potency comes from a doubtful curve fit.
assay: GF-AFC viability counterscreen for inhibitors of alpha-synuclein gene (SNCA) expression; details: HEK-293-SNCA-luc viability, GF-AFC fluorescence, 24 h; activity change, negative = cytotoxicity: at 57.1 µM (top of the series) unless noted; note: nearly all actives have a fitted effect of over 30% in size;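 for activity change, negative = cytotoxicity: 0% = DMSO-treated cells and -100% = medium-only wells without cells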
Method in brief: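 HEK-293-SNCA-luc cells (1500/well) plated 24 h, then exposed 24 h to a dilution series; GF-AFC added 30 min at 37C, fluorescence 405/540 nm; normalised to medium-only and DMSO wells, Hill fit.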
Potency is the fitted concentration of half-maximal effect; tags give direction and shape of the fitted curve.

SMILES	Potency	activity change, negative = cytotoxicity
CN(NC(=O)CC(=O)NN(C)C(=S)c1ccccc1)C(=S)c1ccccc1	inconclusive: 0.0855 µM [cytotoxic, full curve, poor fit]	–
Oc1ccc(CN2CC(CNc3ccccc3)C3(C2)CN(c2ccccc2)C3)cc1 (stereo unspecified)	inconclusive: 31.6 µM [cytotoxic, single point]	–
CC(C)C[C@@H]1N[C@H](C(=O)NC(C)C)Cc2cn(Cc3ccncc3)c3cccc1c23	inconclusive: 56.2 µM [cytotoxic, single point]	–
CN(C)C(=O)N1CCC2(CC1)CN(C(=O)CCc1c[nH]c3ccccc13)Cc1ccccc1O2	inconclusive: 28.2 µM [cytotoxic, partial curve, poor fit]	–
Cc1ccc(C)c(OCC(=O)c2ccc3c(c2)N(CCCC(=O)NC2CCCCC2)C(=O)CO3)c1	active: 17.8 µM	–
COCCO[C@H]1C(=O)N(C2CCNCC2)[C@H]1c1ccncc1	inconclusive: 5.62 µM [cytotoxic, single point]	–
O=C(NC1CCN(Cc2cccc(-c3cccs3)c2)CC1)c1ccncc1	–	inactive: -5.79% [at 12.5 µM]
C[S+](=O)([O-])c1ccc(-c2cc(C(=O)NCc3ccc(F)cc3)nn3cccc23)cc1	inconclusive: 22.4 µM [cytotoxic, single point]	–
COc1ccc(Cc2nc3nccc(-c4cccnc4)n3n2)cc1	–	inactive: 10.1%
CC1=C[C@@H](CNC(=O)N2CCOCC2)[C@H](C(C)C)C[C@H]1Cc1nc2ccccc2[nH]1	inconclusive: 22.4 µM [cytotoxic, partial curve]	–
COc1ccc(-c2nc(C3CC3)nc3c2CCN(CC2CC2)CC3)cc1	–	inactive: -13.2%
CCN(c1ccccc1)c1nnc(NC(=O)Nc2cccc(Br)c2)s1	–	inactive: 3.71%
O=c1cnc2cnc(Nc3ccccc3)nc2n1C[C@H]1CCCO1	inconclusive: 39.8 µM [cytotoxic, single point]	–
C=Cc1ccc(CSc2nc(-c3ccccc3Cl)nc3c2Cc2c(CO)cnc(C)c2O3)cc1	inconclusive: 35.5 µM [cytotoxic, single point]	–
O=C(Nc1cccc(-c2ccc(N3CCCC3)nn2)c1)Nc1cc(F)ccc1F	–	inactive: -20.6%
CCN1C(=O)C2CC3(CCN(C4CCCCC4)CC3)CN2C1=O (stereo unspecified)	inconclusive: 12.6 µM [rising, partial curve, poor fit]	–
COc1ccc(C(=O)N2CCC[C@H]2c2nc(-c3ccc(C)cc3)no2)cc1F	inconclusive: 5.01 µM [cytotoxic, full curve, poor fit]	–
CC1CC(C(O)C(C)(C)O)OC2CC3(C)C4(C)CCC5C(C)(C)C(=O)CCC5(C)C4CCC3(O)C12O (stereo unspecified)	–	inactive: 15.5% [at 23.9 µM]
O=Nc1c(-c2c(O)[nH]c3cc(Br)ccc23)[nH]c2ccccc12	inconclusive: 30.4 µM [cytotoxic, single point]	–
O=C(Cn1c(=O)n(-c2ccccc2)c(=O)c2sc3ccccc3c21)N1CCCC1	inconclusive: 1.12 µM [cytotoxic, full curve, poor fit]	–
Cc1cccc(N(C)C(=O)Cn2ccn3nc(-c4ccc(F)cc4)c(CO)c3c2=O)c1	inconclusive: 35.5 µM [cytotoxic, single point]	–

SMILES	Potency	activity change, negative = cytotoxicity
C[S+](=O)([O-])c1ccc(-c2ncc3c(n2)OCCN(c2ccccc2)C3=O)cc1	–	inactive: -4.76% [at 87.6 µM]
Cc1cc(N2CCCCC2)nc2ccc(NC(=O)c3cccc(F)c3)cc12	inconclusive: 12.6 µM [cytotoxic, partial curve, poor fit]	–
Fc1ccc(C2CCNC[C@H]2COc2ccc3c(c2)OCO3)cc1 (stereo partly specified)	inconclusive: 37.7 µM [cytotoxic, single point]	–
Oc1ccccc1CN1CCNc2cc(Nc3ccccc3)ncc2C1	inconclusive: 4.47 µM [cytotoxic, full curve, poor fit]	–
CC1CCN(S(=O)(=O)c2ccc3c(c2)N(CC(=O)NC(C)c2ccccc2)C(=O)CO3)CC1 (stereo unspecified)	inconclusive: 31.6 µM [cytotoxic, partial curve, poor fit]	–
O=C(NCCc1cnc[nH]1)c1cc(-c2ccccc2F)cc2c1OCCN2Cc1cccnc1	inconclusive: 3.55 µM [cytotoxic, full curve, poor fit]	–
COc1ccc(-c2cc(N3CCCC(NC(=O)c4cccc(C)c4)C3)n[nH]2)cc1 (stereo unspecified)	inconclusive: 12.6 µM [cytotoxic, partial curve, poor fit]	–
O=C1OCC2(CCN(Cc3ccc4c(c3)CCO4)C2)N1Cc1ccccc1 (stereo unspecified)	–	inactive: -6.66% [at 87.6 µM]
CCOc1ccc(NC(=O)C(NC(=O)C2CCC(C)CC2)C(C)C)cc1 (stereo unspecified)	inconclusive: 0.282 µM [rising, full curve, poor fit]	–
COCC(=O)N1CCCN(c2nc3ncccc3o2)CC1	–	inactive: 3.65% [at 87.6 µM]
Cc1cccc2c1nc1n2[C@@H](CNCc2ccc(S(C)(=O)=O)cc2)COC1	inconclusive: 31.6 µM [cytotoxic, partial curve, poor fit]	–
Cc1noc([C@@H]2CN(Cc3ccco3)C[C@H]2CO)n1	inconclusive: 35.5 µM [cytotoxic, single point]	–
CC1=C[C@@H](CNCC(C)C)[C@H](C(C)C)C[C@H]1Cc1nc2c(C)cccc2[nH]1	inconclusive: 44.7 µM [cytotoxic, partial curve, poor fit]	–
Cc1cc(-c2cnc3n[nH]c(-c4ccccc4)c3n2)ccn1	–	inactive: 2.6% [at 87.6 µM]
O=C(NCC1CCCO1)c1cc2c(=O)[nH]c(-c3ccccc3)cn2n1 (stereo unspecified)	–	inactive: -12.5%
COc1ccc(NC(=O)CSc2nc3ccccc3n2CC(=O)N(C)c2ccc(F)cc2)cc1	inconclusive: 12.6 µM [cytotoxic, partial curve, poor fit]	–
Cc1ccc(Cl)cc1NC(=O)CSC1=Nc2ccccc2C2=NC(Cc3ccccc3)C(=O)N12 (stereo unspecified)	inconclusive: 14.1 µM [cytotoxic, partial curve]	–
CSc1ccc(-c2cccc(C(=O)NCC(=O)N3CCC(c4ccccc4)CC3)c2)cc1	–	inactive: 4.03%
O=C1NCCOCCCN(S(=O)(=O)c2ccc3c(c2)OCCO3)[C@H]2CCC[C@@H]12	–	inconclusive: -42.9%
Cc1ccc(C(=O)N2CCCN(S(C)(=O)=O)c3ccccc32)s1	inconclusive: 35.5 µM [cytotoxic, single point]	–
